# Measured values taken from the supplement of paper PMC6089552.
# Among all 3,200 compounds or so, about 300 (9.4%) showed activity. This is a selection; strong and weak results do not stand in their true shares.
# System: A673/TR/shEF
# Experiment: cell viability (LOESS-normalised, relative to median of negative controls) (log2 ratio); higher = more viable cells (less compound effect), active = hit call of the paper (over 3 MAD below the median)
# Conditions: treatment time: 72 h
# Outline: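 Doxycycline, present or absent from 24 h before compounds, was used to induce EWS-FLI1 shRNA knockdown in A673/TR/shEF Ewing sarcoma cells at 1,500 per well in 384-well plates. Cells then received library compounds at two or more concentrations, or DMSO controls, for three days. Viability was measured by CellTiter-Glo luminescence on an Envision reader, and per-plate LOESS correction, division by the negative-control median and log2 transformation followed.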
# [1] = 0.25 µM, library screen: screen2, EWS-FLI1 expression: high (no doxycycline)
# [2] = 0.25 µM, library screen: screen2, EWS-FLI1 expression: low (doxycycline-induced shRNA knockdown)
# [3] = 2.5 µM, library screen: screen2, EWS-FLI1 expression: high (no doxycycline)
# [4] = 2.5 µM, library screen: screen2, EWS-FLI1 expression: low (doxycycline-induced shRNA knockdown)
# [5] = 0.25 µM, library screen: screen1, EWS-FLI1 expression: high (no doxycycline)
# [6] = 0.25 µM, library screen: screen1, EWS-FLI1 expression: low (doxycycline-induced shRNA knockdown)
# [7] = 2.5 µM, library screen: screen1, EWS-FLI1 expression: high (no doxycycline)
# [8] = 2.5 µM, library screen: screen1, EWS-FLI1 expression: low (doxycycline-induced shRNA knockdown)
# [9] = 0.103 µM, library screen: screen3, EWS-FLI1 expression: high (no doxycycline)
# [10] = 0.103 µM, library screen: screen3, EWS-FLI1 expression: low (doxycycline-induced shRNA knockdown)
# [11] = 0.308 µM, library screen: screen3, EWS-FLI1 expression: high (no doxycycline)
# [12] = 0.308 µM, library screen: screen3, EWS-FLI1 expression: low (doxycycline-induced shRNA knockdown)
# [13] = 0.926 µM, library screen: screen3, EWS-FLI1 expression: high (no doxycycline)
# [14] = 0.926 µM, library screen: screen3, EWS-FLI1 expression: low (doxycycline-induced shRNA knockdown)
# [15] = 2.8 µM, library screen: screen3, EWS-FLI1 expression: high (no doxycycline)
# [16] = 2.8 µM, library screen: screen3, EWS-FLI1 expression: low (doxycycline-induced shRNA knockdown)
# [17] = 8.3 µM, library screen: screen3, EWS-FLI1 expression: high (no doxycycline)
# [18] = 8.3 µM, library screen: screen3, EWS-FLI1 expression: low (doxycycline-induced shRNA knockdown)
# [19] = 25 µM, library screen: screen3, EWS-FLI1 expression: high (no doxycycline)
# [20] = 25 µM, library screen: screen3, EWS-FLI1 expression: low (doxycycline-induced shRNA knockdown)
# [21] = 25 µM, library screen: screen2, EWS-FLI1 expression: high (no doxycycline)
# [22] = 25 µM, library screen: screen2, EWS-FLI1 expression: low (doxycycline-induced shRNA knockdown)
compound,measurement,setting,value
N[C@@H](CCl)C(=O)O,cell viability (log2),[1],inactive: 0.216
same,cell viability (log2),[2],inactive: 0.144
same,cell viability (log2),[3],inactive: 0.0457
same,cell viability (log2),[4],inactive: 0.0934
CC(C)(C)NCC(O)c1cc(Cl)c(N)c(Cl)c1 (stereo not drawn),cell viability (log2),[5],inactive: 0.0911
same,cell viability (log2),[6],inactive: 0.0692
same,cell viability (log2),[7],inactive: 0.117
same,cell viability (log2),[8],inactive: 0.116
COc1cc2c(cc1OC)[C@@]13CCN4CC5=CCO[C@H]6CC(=O)N2[C@H]1[C@H]6[C@H]5C[C@H]43,cell viability (log2),[5],inactive: 0.0057
same,cell viability (log2),[6],inactive: 0.0368
same,cell viability (log2),[7],inactive: 0.098
same,cell viability (log2),[8],inactive: -0.0757
NNC(=O)c1ccc(O)cc1,cell viability (log2),[1],inactive: 0.16
same,cell viability (log2),[2],inactive: 0.0709
same,cell viability (log2),[3],inactive: 0.151
same,cell viability (log2),[4],inactive: 0.0236
COC(=O)[C@@H](N)CCCN=C(N)N[N+](=O)[O-],cell viability (log2),[1],inactive: 0.0622
same,cell viability (log2),[2],inactive: 0.111
same,cell viability (log2),[3],inactive: 0.138
same,cell viability (log2),[4],inactive: 0.134
CC(C)=CCCC1(C)C=Cc2c(O)c3c(c(CC=C(C)C)c2O1)OC12C(=CC4CC1C(C)(C)OC2(CC=C(C)C(=O)O)C4O)C3=O (stereo not drawn),cell viability (log2),[5],inactive: 0.1
same,cell viability (log2),[6],inactive: 0.0956
same,cell viability (log2),[7],active: -0.137
same,cell viability (log2),[8],0.307
C[C@]12CC[C@H]3[C@@H](CC[C@@]45O[C@@H]4C(O)=C(C#N)C[C@]35C)[C@@H]1CC[C@@H]2O,cell viability (log2),[9],inactive: 0.0389
same,cell viability (log2),[10],inactive: 0.0413
same,cell viability (log2),[11],inactive: 0.0492
same,cell viability (log2),[12],inactive: 0.0305
same,cell viability (log2),[13],inactive: 0.0104
same,cell viability (log2),[14],inactive: 0.00289
same,cell viability (log2),[15],inactive: 0.0626
same,cell viability (log2),[16],inactive: 0.0626
same,cell viability (log2),[17],inactive: 0.137
same,cell viability (log2),[18],inactive: 0.0589
same,cell viability (log2),[19],inactive: 0.00564
same,cell viability (log2),[20],inactive: 0.0892
NCCCP(=O)(O)O,cell viability (log2),[1],inactive: 0.138
same,cell viability (log2),[2],inactive: 0.0766
same,cell viability (log2),[3],inactive: 0.114
same,cell viability (log2),[4],inactive: 0.116
CNCCc1c[nH]c2ccc(O)cc12,cell viability (log2),[1],inactive: 0.0733
same,cell viability (log2),[2],inactive: 0.112
same,cell viability (log2),[3],inactive: 0.113
same,cell viability (log2),[4],inactive: 0.0908
CCC1(CC)C(=O)C=CNC1=O,cell viability (log2),[5],inactive: 0.0965
same,cell viability (log2),[6],inactive: 0.116
same,cell viability (log2),[7],inactive: 0.143
same,cell viability (log2),[8],inactive: 0.0487
Cc1c(N)nc(C(CC(N)=O)NCC(N)C(N)=O)nc1C(=O)NC(C(=O)NC(C)C(O)C(C)C(=O)NC(C(=O)NCCc1nc(-c2nc(C(=O)NCCC[S+](C)C)cs2)cs1)C(C)O)C(O[C@@H]1O[C@@H](CO)[C@@H](O)[C@H](O)[C@@H]1O[C@H]1O[C@H](CO)[C@@H](O)[C@H](OC(N)=O)[C@@H]1O)c1cnc[nH]1 (stereo partly drawn),cell viability (log2),[9],inactive: 0.0914
same,cell viability (log2),[10],inactive: 0.135
same,cell viability (log2),[11],inactive: 0.115
same,cell viability (log2),[12],inactive: 0.0961
same,cell viability (log2),[13],inactive: 0.0288
same,cell viability (log2),[14],inactive: 0.0331
same,cell viability (log2),[15],inactive: 0.152
same,cell viability (log2),[16],inactive: 0.1
same,cell viability (log2),[17],inactive: 0.12
same,cell viability (log2),[18],inactive: 0.0649
same,cell viability (log2),[19],inactive: 0.18
same,cell viability (log2),[20],inactive: 0.0742
Nc1ncnc2c1ncn2C1OC2COP(O)(=S)OC2C1O (stereo not drawn),cell viability (log2),[1],inactive: 0.0926
same,cell viability (log2),[2],inactive: 0.132
same,cell viability (log2),[3],inactive: 0.0861
same,cell viability (log2),[4],inactive: 0.0676
COc1ccc(Cc2nccc3cc(OC)c(OC)cc23)cc1OC,cell viability (log2),[5],inactive: 0.0975
same,cell viability (log2),[6],inactive: 0.126
same,cell viability (log2),[1],inactive: 0.144
same,cell viability (log2),[2],inactive: 0.0494
same,cell viability (log2),[7],inactive: 0.141
same,cell viability (log2),[8],inactive: 0.216
same,cell viability (log2),[3],inactive: 0.00334
same,cell viability (log2),[4],inactive: 0.125
Oc1c(Cl)c(Cl)c(Cl)c(Cl)c1Cl,cell viability (log2),[5],inactive: 0.0795
same,cell viability (log2),[6],inactive: 0.0349
same,cell viability (log2),[7],inactive: 0.101
same,cell viability (log2),[8],inactive: 0.135
O=C1c2ccccc2C(=O)c2ccccc21,cell viability (log2),[5],inactive: 0.0481
same,cell viability (log2),[6],inactive: 0.0868
same,cell viability (log2),[7],inactive: 0.203
same,cell viability (log2),[8],inactive: 0.0785
CCc1cccc(C)c1N(C(=O)CCl)C(C)COC (stereo not drawn),cell viability (log2),[5],inactive: 0.0561
same,cell viability (log2),[6],inactive: 0.0711
same,cell viability (log2),[7],inactive: 0.0898
same,cell viability (log2),[8],inactive: 0.0634
COc1ccc2c(c1)[nH]c1c(C)nccc12,cell viability (log2),[5],inactive: 0.0682
same,cell viability (log2),[6],inactive: 0.0261
same,cell viability (log2),[7],inactive: 0.183
same,cell viability (log2),[8],inactive: 0.154
CC(C)N(C(=O)SCC(Cl)=C(Cl)Cl)C(C)C,cell viability (log2),[5],inactive: 0.0806
same,cell viability (log2),[6],inactive: 0.0889
same,cell viability (log2),[7],inactive: -0.00898
same,cell viability (log2),[8],inactive: 0.0996
COc1ccc(C[C@H]2NC[C@H](O)[C@H]2OC(C)=O)cc1,cell viability (log2),[5],active: -0.49
same,cell viability (log2),[6],active: -0.228
same,cell viability (log2),[7],active: -2.24
same,cell viability (log2),[8],active: -1.04
CCCN(CCC)CCc1ccc(O)c(O)c1,cell viability (log2),[1],inactive: 0.238
same,cell viability (log2),[2],inactive: 0.0631
same,cell viability (log2),[3],inactive: 0.171
same,cell viability (log2),[4],inactive: 0.138
NCCc1c[nH]c2ccc(O)cc12,cell viability (log2),[1],inactive: 0.151
same,cell viability (log2),[2],inactive: 0.0973
same,cell viability (log2),[3],inactive: 0.138
same,cell viability (log2),[4],inactive: 0.11
COc1cc([C@@H]2c3cc4c(cc3[C@H](O)[C@H]3COC(=O)[C@H]23)OCO4)cc(OC)c1OC,cell viability (log2),[5],active: -3.56
same,cell viability (log2),[6],active: -1.09
same,cell viability (log2),[7],active: -4.23
same,cell viability (log2),[8],active: -0.986
same,cell viability (log2),[3],active: -1.33
same,cell viability (log2),[4],active: -0.175
same,cell viability (log2),[21],active: -2.9
same,cell viability (log2),[22],active: -0.496
CO[C@H]1[C@H](O)[C@H](O[C@H]2CC[C@@]3(C)[C@H](CC[C@@H]4[C@@H]3CC[C@]3(C)[C@@H](C5=CC(=O)OC5)CC[C@]43O)C2)O[C@@H](C)[C@@H]1O,cell viability (log2),[7],active: -4.02
same,cell viability (log2),[8],active: -4.27
CNC(C)C(O)c1ccccc1 (stereo not drawn),cell viability (log2),[5],inactive: 0.0913
same,cell viability (log2),[6],inactive: -0.0933
same,cell viability (log2),[7],inactive: 0.0276
same,cell viability (log2),[8],inactive: 0.0547
CC[C@H]1CN2CCc3cc(OC)c(OC)cc3[C@@H]2C[C@@H]1C[C@H]1NCCc2cc(OC)c(OC)cc21,cell viability (log2),"0.025 µM, library screen: screen2, EWS-FLI1 expression: high (no doxycycline)",inactive: 0.187
same,cell viability (log2),"0.025 µM, library screen: screen2, EWS-FLI1 expression: low (doxycycline-induced shRNA knockdown)",inactive: 0.0478
same,cell viability (log2),[5],inactive: 0.11
same,cell viability (log2),[6],inactive: 0.116
same,cell viability (log2),[1],active: -0.895
same,cell viability (log2),[2],active: -0.442
same,cell viability (log2),[7],active: -1.08
same,cell viability (log2),[8],active: -0.152
same,cell viability (log2),[3],active: -2.19
same,cell viability (log2),[4],active: -1.21
same,cell viability (log2),[21],active: -2.91
same,cell viability (log2),[22],active: -1.84
CS(=N)(=O)CC[C@H](N)C(=O)O (stereo partly drawn),cell viability (log2),[1],inactive: 0.123
same,cell viability (log2),[2],inactive: 0.148
same,cell viability (log2),[3],inactive: 0.135
same,cell viability (log2),[4],inactive: 0.0831
COc1cc2c(cc1-c1cc3cc4ccoc4cc3oc1=O)OCO2,cell viability (log2),[5],inactive: 0.0215
same,cell viability (log2),[6],inactive: -0.011
same,cell viability (log2),[7],inactive: 0.0285
same,cell viability (log2),[8],inactive: 0.107
